Assay results published in publication PMC4336329 (PLoS ONE, 2015).
In all, about 310,000 compounds went through this assay and about 14,000 (4.5%) showed an effect of 50% or more. Effects have a minus sign here. Some of the results follow.

target: human ether-à-go-go-related gene (hERG) potassium channel (human, UniProt Q12809); assay: primary screen, population patch clamp on CHO cells stably expressing hERG
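Further: peak tail current of the secondary pulse compared with the same well before compound.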

human ether-à-go-go-related gene (hERG) potassium channel, sequence (Q12809 whole entry, looked up): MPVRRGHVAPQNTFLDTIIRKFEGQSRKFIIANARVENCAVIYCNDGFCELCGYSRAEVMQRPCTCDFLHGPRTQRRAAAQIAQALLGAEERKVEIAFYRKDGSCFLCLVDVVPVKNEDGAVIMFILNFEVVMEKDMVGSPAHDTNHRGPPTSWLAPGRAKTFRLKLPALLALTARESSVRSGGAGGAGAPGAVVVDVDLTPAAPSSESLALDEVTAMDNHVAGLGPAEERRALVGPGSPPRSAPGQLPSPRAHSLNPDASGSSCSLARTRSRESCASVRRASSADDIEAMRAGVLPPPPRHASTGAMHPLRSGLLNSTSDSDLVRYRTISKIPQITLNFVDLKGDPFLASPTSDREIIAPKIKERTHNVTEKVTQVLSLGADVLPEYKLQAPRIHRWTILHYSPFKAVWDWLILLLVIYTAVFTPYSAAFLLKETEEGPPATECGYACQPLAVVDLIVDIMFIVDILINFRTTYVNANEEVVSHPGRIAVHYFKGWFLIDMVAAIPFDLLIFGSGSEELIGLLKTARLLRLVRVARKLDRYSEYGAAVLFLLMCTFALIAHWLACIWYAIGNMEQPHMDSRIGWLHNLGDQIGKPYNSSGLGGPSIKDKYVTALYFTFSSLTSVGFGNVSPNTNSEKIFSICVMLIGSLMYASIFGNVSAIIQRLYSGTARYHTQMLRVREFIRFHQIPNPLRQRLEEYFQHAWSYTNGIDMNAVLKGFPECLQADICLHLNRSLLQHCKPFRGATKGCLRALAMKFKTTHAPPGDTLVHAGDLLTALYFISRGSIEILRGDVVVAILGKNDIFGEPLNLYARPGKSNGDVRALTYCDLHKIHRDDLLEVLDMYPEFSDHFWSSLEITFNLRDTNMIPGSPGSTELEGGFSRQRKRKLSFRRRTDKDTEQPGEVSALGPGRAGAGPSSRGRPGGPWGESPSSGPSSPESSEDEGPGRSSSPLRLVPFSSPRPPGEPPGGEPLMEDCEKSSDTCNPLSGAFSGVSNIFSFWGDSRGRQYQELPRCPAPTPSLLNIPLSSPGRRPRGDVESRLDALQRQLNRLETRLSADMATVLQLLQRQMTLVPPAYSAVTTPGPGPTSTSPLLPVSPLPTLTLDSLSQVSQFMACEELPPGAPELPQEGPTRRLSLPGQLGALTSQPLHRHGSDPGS

Compound	hERG current change (%, negative = inhibition) at 10uM
COC(=O)CSc1nc(-c2ccc(C)cc2)c2c(c1C#N)CCCC2	3.17%
Cc1cc(NC(=O)COC(=O)C2CC(=O)N(c3cccc(Cl)c3)C2)no1 (stereo not shown)	14%
C/C(=N\NC(N)=S)c1ccc(-n2ccnc2)cc1	-10.2%
CC(=O)NCCNC(=O)c1cc(-c2cccc3ccccc23)nc2ccccc12	-7.57%
Cc1cc(S(=O)(=O)N2CCCCC2)ccc1OCC(=O)N1CCCC1	-0.304%
N/C(=N\OC(=O)c1ccc2ccccc2c1)c1ccc(Br)cc1	1.79%
O=C(OCCN1C(=O)c2ccccc2C1=O)Oc1ccccc1	-9.79%
Cn1cnc2c(=O)sc3ccccc3c21	5.9%
CC(C)Cn1c(SC(C)C(=O)NCC2CCCO2)nc2ccc(Cl)cc2c1=O (stereo not shown)	8.71%
CCC(=O)n1nc(-c2ccc(Cl)cc2)nc1NCc1ccccc1	4.15%
CC(=O)Nc1ccc(N2C(=O)CC(N3CCSCC3)C2=O)cc1 (stereo not shown)	5.45%
O=C(CCc1ccccc1)Nc1ccc(N2CCCCC2)cc1	-1.58%
O=C(NCc1cccs1)C1CCN(S(=O)(=O)c2ccc(Br)s2)CC1	-14.8%
CCC(CC)C(=O)c1c[nH]c(C(=O)NCCCN2CCOCC2)c1	-5.06%
CC(=O)N1c2ccc(S(=O)(=O)N3CCCC(C(=O)N4CCCCC4)C3)cc2CC1C (stereo not shown)	19.2%
O=C(CNC(=O)C12CC3CC(CC(C3)C1)C2)NCc1ccccc1	-3.32%
COc1cccc(CC2(CO)CCCN(Cc3ccc(C)s3)C2)c1 (stereo not shown)	-50.5%
Cn1cc(C=O)c(-c2ccc3c(c2)OCCCO3)n1	13.3%
CN(C)c1ccc(N2C(=NC(=O)COc3ccccc3)SC3CS(=O)(=O)CC32)cc1 (stereo not shown)	23.7%
CCCCN(C(=O)Cc1ccc(S(=O)(=O)N2CCOCC2)s1)c1c(N)n(CCCC)c(=O)[nH]c1=O	0.586%
COc1ccccc1-c1nc(SCC(=O)NCC2CCCO2)c2c(=O)n(C)c(=O)n(C)c2n1 (stereo not shown)	1.03%
COc1cc(/C=N\NC(=O)CC#N)ccc1OC/C=C/c1ccccc1	4.71%

Compound	hERG current change (%, negative = inhibition) at 10uM
O=C(CNC(=O)c1ccco1)OCc1ccc(C(=O)Oc2ccccc2)cc1	-73.6%
O=C(NNC(=O)c1ccccc1F)c1ccco1	16%
O=C(NCCCN1CCN(c2ccccc2F)CC1)C1CC(=O)N(C2CCCC2)C1 (stereo not shown)	-9.49%
COc1nc(OC)nc(N2CCC(C(=O)NCc3ccc(F)cc3)CC2)n1	-44.9%
Cc1ccc(C(=O)OCc2c(C)noc2C)cc1NC(=O)c1ccco1	-16.6%
CCOC(=O)C1=C(C)NC(=O)NC1c1ccccc1OCc1c(F)cccc1Cl (stereo not shown)	-12.7%
CCOc1ccc(C(C)C)cc1S(=O)(=O)N1CCN(C(=O)c2ccco2)CC1	3.94%
CC(C)CCNC(=O)C(c1cccnc1)N(Cc1ccccc1)C(=O)Cn1nnc2ccccc21 (stereo not shown)	-18.6%
CC1CN(S(=O)(=O)c2cccc(C(=O)NNC(=O)C(C)Oc3ccccc3F)c2)CC(C)O1 (stereo not shown)	-6.62%
Cc1nc(N2N=C(c3ccc(Cl)cc3)CC2c2ccco2)sc1C(=O)N(C)C (stereo not shown)	-10.8%
Cc1cc([N+](=O)[O-])ccc1NCc1ccccc1	-14.1%
CCCn1nc2cc(C(=O)NC3CCc4ccccc43)ccc2c1OCC (stereo not shown)	1.48%
O=S(=O)(c1ccc(S(=O)(=O)n2cnc3ccccc32)cc1)N1CCCCCC1	3.15%
CCOc1ncccc1C(=O)Nc1cc(S(=O)(=O)N2CCOCC2)ccc1N1CCCC1	-24.3%
CCC(=O)c1c[nH]c(C(=O)NCc2ccco2)c1	-8.24%
O=C(NCCCn1ccnc1)Nc1cccc(Cl)c1	-3%
O=c1cc(-c2ccc(Cl)cc2)oc(=O)[nH]1	14.1%
Fc1cccc(C2CC(c3cccc(Br)c3)Nc3nnnn32)c1 (stereo not shown)	-3.02%
O=C(Nc1nc2c(F)cc(F)cc2s1)C1CCN(C(=O)c2ccc(F)cc2)CC1	4.26%
COc1ccc(NC(=O)C(c2ccccc2)N2CCN(c3ccccn3)CC2)cc1Cl (stereo not shown)	-20.9%
O=C1NC(c2ccc(-c3ccccc3[N+](=O)[O-])o2)C(C(=O)c2ccc(F)cc2)C(O)(C(F)(F)F)N1 (stereo not shown)	1.31%
O=C(OCC(=O)N1CCCCC1)c1c[nH]c(=O)[nH]c1=O	-6.27%

Compound	hERG current change (%, negative = inhibition) at 10uM
Cc1ccc(CNC(=O)c2coc(=O)c3ccccc23)o1	3.63%
Cc1cc(NC(=O)c2cc(-c3cccc(OCC(C)C)c3)nc3ccccc23)no1	18.5%
CC(=O)c1ccc(N2CCN(C(=O)Cc3cccs3)CC2)cc1	-33.3%
NC(=O)c1ccc(NC(=O)c2ccc(COc3ccc(F)cc3)o2)cc1	3.47%
COc1ccc(NC(=O)CN(C)C(=O)C2CC(=O)N(Cc3ccc(C)cc3)C2)cc1 (stereo not shown)	4.41%
COc1ccc(-n2cc([N+](=O)[O-])c(=O)c3ccc(Cl)cc32)cc1	-2.07%
CC1(C)CC(=O)C(=CN2CCOCC2)C(=O)C1	-0.13%
O=C(O)c1cc(S(=O)(=O)N2CCCCCC2)c(Cl)cc1Cl	1.49%
CCOC(=O)c1c(C)c(-c2ccccc2)n(CC(=O)N2CCN(C)CC2)c1C	-5.56%
COc1ccc(-c2noc(CN(C)S(=O)(=O)c3ccccc3)n2)cc1OC	11.2%
O=C(c1ccc(CS(=O)(=O)c2ccc(Br)cc2)o1)N1CCOCC1	-13.9%
CC(C)(C)c1ccc(S(=O)(=O)N2CCN(Cc3cc4c(cc3O)OCO4)CC2)cc1	-9.21%
COCCn1c(C)cc(C(=O)COC(=O)CCc2ccc(S(=O)(=O)N3CCOCC3)cc2)c1C	2.19%
CCCC(=O)NNC(=O)CCC(=O)NCc1ccccc1	9.44%
O=C(NCCc1ccccc1)c1ccc2c(c1)OCCCO2	17.4%
O=C(c1ccccc1)c1c2c(cc3sc4ccccc4[n+]13)-c1cccc3cccc-2c13.[Br-]	-76.8%
COc1ccc(/C=N/Nc2ccccn2)c(OC)c1OC	3.27%
Cc1nnc(N/N=C/C2CC=CCC2)[nH]c1=O (stereo not shown)	7.06%
CN(CCO)c1cc(N(C)CCO)c([N+](=O)[O-])cc1[N+](=O)[O-]	2.07%
Nc1nccnc1C(=O)OCC(=O)N1CCN(S(=O)(=O)c2ccc(Cl)cc2)CC1	-15.4%
Cc1ccc(NCC(O)C(O)C(O)CO)cc1C (stereo not shown)	14.9%
Cn1c(NC(=O)C[n+]2cc(-c3ccc(Cl)c(Cl)c3)n3c2CCC3)cc(=O)n(C)c1=O.[Cl-]	-8.45%

Compound	hERG current change (%, negative = inhibition) at 10uM
Cc1cc(=O)[nH]c(N/N=C/c2ccc(N(C)C)cc2)n1	-0.898%
O=C(Nc1ccc(F)cc1)c1cc(-c2ccccn2)nc2c(Cl)cccc12	14.3%
CC1CCCCC1NC(=O)CSc1nnc(-c2ccccc2)n1N (stereo not shown)	9.28%
Cc1cc2[nH]c(=O)c(=O)[nH]c2cc1S(=O)(=O)N1CCN(c2ccccc2F)CC1	18.1%
Cc1ccc(-n2nnnc2-c2cccs2)cc1[N+](=O)[O-]	-11.8%
CC1CCC2(CC1)N=C(N)Nc1nc3ccccc3n12 (stereo not shown)	-13.6%
COc1cccc(OCC(=O)Nc2ccncc2)c1	5.03%
CN(c1ccccc1)c1nc(-n2ccnc2)nc(-n2ccnc2)n1	-67.7%
NC(=O)NOCc1cccc(Cl)c1	12.2%
O=c1c2ccccc2cnn1Cc1ccc(Cl)c(Cl)c1	12.1%
COc1cccc(C(=O)OCC(=O)c2c[nH]c3ccccc23)c1OC	6.17%
CN(C)C(/C=C/Nc1ccc(Br)cc1)=C(C#N)C#N	-17.9%
COc1ccc2[nH]c(=O)c(CN(C(=O)C(C)C)c3ccccc3OC)cc2c1	-2.54%
O=C(c1ccc2c(c1)OCO2)N1CCC2(CC1)Oc1ccc(Cl)cc1C(=O)C21CC(c2cccnc2)=NO1 (stereo not shown)	-12.2%
CC(=O)NCCNC(=O)C1CCCCN1S(=O)(=O)c1ccccc1 (stereo not shown)	5.43%
Cc1noc(C)c1C(=O)Nc1sc(C)c(-c2ccccc2)c1C#N	-2.24%
CCOC(=O)CNC(=O)CNC(=O)c1ccc(OC)cc1	13.9%
Cc1ccc(Cl)cc1NC(=O)C1CCCN(S(=O)(=O)c2c(C)noc2C)C1 (stereo not shown)	6.08%
O=C(CSc1nnc(Cc2cccs2)n1Cc1ccco1)Nc1cc(Cl)cc(Cl)c1	-8.25%
CC(=O)n1cc(/C=N/NC(=O)c2cccc(O)c2)c2ccccc21	2.85%
Cc1ccc(S(=O)(=O)N(CC(=O)NCc2ccccn2)c2ccc(Cl)cc2)cc1	-29.7%
Cc1ccccc1Nc1c(F)c(F)c(F)c(F)c1C(=O)O	9.82%
